# Screen size: about 420,000 compounds; about 50,000 (12%) were called active. The inconclusive results got no clear call from the source; some entries with a clear call stand among them for comparison. The call rests on the fitted dose curve; in most records, active means well fitted inhibition curve with a large enough effect; inconclusive means small, poorly fitted or top-dose-only effect; inactive means flat fitted curve, though single readings scatter. No potency is given beside an inconclusive call; the fits are too rough.
# Experiment: qHTS for Inhibitors of human tyrosyl-DNA phosphodiesterase 1 (TDP1): qHTS in cells in presence of CPT; further: nearly all actives have a fitted effect of over 55% in size
# Conditions: chicken DT40 Tdp1-/-;hTDP1 cells + 20 nM CPT, ATP luminescence, 48 h; activity change, negative = growth inhibition: at 46.2 µM (top of the series)
# Outline: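 Chicken DT40 Tdp1-/- cells complemented with human TDP1, 400 cells/well, exposed to compounds plus 20 nM camptothecin for at least 48 h at 37 C; viability read as ATP content by CellTiter-Glo luminescence.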
# On the % scale 0 is the no-effect control and ±100 the full control effect; potency means the concentration at half of the fitted maximal effect; tags describe the fitted curve by direction and shape.
Compound,Potency,"activity change, negative = growth inhibition"
Cc1ccc(C(NC(=O)c2cccc(S(=O)(=O)N3CCN(C)CC3)c2)c2ccccc2)cc1 (stereo not given),inactive,–
O=C(CC1N=C2c3ccccc3N=C(SCC(=O)Nc3ccc(F)cc3)N2C1=O)NCc1cccs1 (stereo not given),"inconclusive [inhibitor, partial curve]",–
Cc1nn(C)cc1C(C(=O)NC1CCCCC1)N(C(=O)c1cnccn1)c1ccc(Oc2ccccc2)cc1 (stereo not given),"inconclusive [inhibitor, partial curve]",–
CCOC(=O)N1CCN(C(=O)c2ccc3c(c2)N=C(C)c2cc(Cl)ccc2S3)CC1,"inconclusive [inhibitor, single point]",–
c1ccc(CN2CCC3(CCCc4ccccc43)CC2)cc1,"inconclusive [inhibitor, single point]",–
COc1ccc(C(=O)Nc2nc(-c3ccc(S(=O)(=O)N4CCOCC4)cc3)cs2)cc1,"inconclusive [inhibitor, single point]",–
CCOc1ccc(N2C(=O)C(C)CNC2=S)cc1 (stereo not given),inactive,–
COc1cc(OC)cc(C(=O)N[C@H](C(=O)OCc2cc(=O)oc3cc(C)ccc23)C(C)C)c1,"inconclusive [inhibitor, single point]",–
COc1ccc(N(C(=O)c2cnsn2)C(C(=O)NC2CCCCC2)c2ccncc2)cc1 (stereo not given),"inconclusive [inhibitor, single point]",–
O=C(NCc1ccccc1)c1ccc2oc(=O)n(Cc3ccccc3)c2c1,"inconclusive [inhibitor, single point]",–
CC(C)(C)c1ccc(C(=O)OCC(=O)Nc2sc3c(c2C#N)CCC3)cc1,"inconclusive [inhibitor, partial curve]",–
Cc1cc(C)n(CC(=O)NNC(=O)C2CC(=O)N(Cc3ccccc3Cl)C2)n1 (stereo not given),inactive,–
CC(NC(=O)Cn1cc([N+](=O)[O-])cn1)c1ccc(C(C)(C)C)cc1 (stereo not given),"inconclusive [inhibitor, single point]",–
COc1ccc(CC(=O)N2CCc3cc(OC)c(OC)cc3C2COc2ccc(F)cc2)cc1OC (stereo not given),"inconclusive [inhibitor, single point]",–
Cc1cccc(C)c1NC(=O)COC(=O)COc1ccc2c(C)cc(=O)oc2c1,"inconclusive [inhibitor, single point]",–
Cc1cc(C)nc(N2CCC(C(=O)NCCc3ccccc3)CC2)n1,active: 8.2 µM,–
c1ccc(CCC2Cc3ccccc3N2)cc1 (stereo not given),"inconclusive [inhibitor, single point]",–
Cc1ccc(/C=C2\SC(=S)N(CCCC(=O)NNC(=O)c3ccccc3O)C2=O)cc1,"inconclusive [inhibitor, single point]",–
CCOc1ccc(S(=O)(=O)N2CCC(C(=O)Nc3ccccc3N3CCCC3)CC2)cc1,"inconclusive [inhibitor, single point]",–
O=C(COC(=O)CSc1ccc(Cl)cc1)NCCc1ccccc1,"inconclusive [inhibitor, full curve, poor fit]",–
COc1ccc2c(CNCc3cccs3)c(C(=O)O)n(Cc3ccccc3F)c2c1,"inconclusive [inhibitor, single point]",–
CN1CCN(C(=O)c2cc3ccccc3[nH]2)CC1,inactive,–
Cc1cccc(/C=N/NC(=O)c2c(-c3ccccc3)noc2C)c1O,active: 18.4 µM,–
Cc1ccc(C(=O)C(C)CN2CCCCC2)cc1 (stereo not given),"inconclusive [inhibitor, single point]",–

Compound,Potency,"activity change, negative = growth inhibition"
Cc1cccc(C2=NN(c3ccccc3)[C@H](CO)[C@H]2c2ccccc2)c1,"inconclusive [inhibitor, single point]",–
CN(C)c1ccc(NC(=O)CSC2=Nc3ccccc3C3=NC(CCC(=O)NCc4cccs4)C(=O)N23)cc1 (stereo not given),"inconclusive [inhibitor, single point]",–
Cc1ccc(NC(=O)CSCC(=O)Nc2nnc(C)s2)cc1,inactive,–
COCCNC(=O)c1ccc2c(c1)N=C(C)c1cc(C)ccc1S2,active: 0.517 µM,–
COc1cccc(CN2CCNC(=O)C2CC(=O)N(C)C2CCOCC2)c1 (stereo not given),inactive,–
Cc1c(C(=O)NC(C)c2ccccc2)sc2nc3n(c(=O)c12)CCCC3 (stereo not given),inactive,–
COc1cccc(C(=O)Nc2cccc(C(=O)OCc3cc(=O)n4c(C)csc4n3)c2)c1,"inconclusive [inhibitor, single point]",–
Cc1cccc(C(=O)OCC(=O)c2c(N)n(CC(C)C)c(=O)n(C)c2=O)c1[N+](=O)[O-],"inconclusive [inhibitor, single point]",–
O=C(NCc1ccco1)c1ccc2sc([C@@H]3O[C@H](CO)[C@H](O)[C@H](O)[C@H]3O)nc2c1,inactive,–
Cc1cc(C)n2cc(CSc3nnnn3-c3ccc(Cl)cc3)nc2n1,"inconclusive [inhibitor, single point]",–
CC1(C)C(C#N)=C(N)OC2=C1C(=O)CCC2,inactive,–
Cc1nn2cc(-c3ccccc3)nc2s1,inactive,–
CC(Sc1ncnc2sc(-c3ccccc3)cc12)C(=O)N1CCNC1=O (stereo not given),active: 18.4 µM,–
O=[N+]([O-])c1ccc(NC(=S)NCC(c2cccnc2)N2CCOCC2)cc1 (stereo not given),"inconclusive [inhibitor, partial curve, poor fit]",–
COc1ccc2cc(CN(Cc3cccnc3)Cc3nnnn3Cc3ccccc3)c(=O)[nH]c2c1,"inconclusive [inhibitor, single point]",–
CCOC(=O)COc1ccc(C)cc1C(=O)c1ccn2nc(-c3ccc(F)cc3)cc2n1,active: 16.4 µM,–
O=C(CCc1ccco1)CCc1ccco1,inactive,–
CC(C)N(Cc1ccccc1)C(=O)/C=C/c1ccccc1[N+](=O)[O-],"inconclusive [inhibitor, partial curve]",–
O=C(Nc1ccc(S(=O)(=O)NC2=NCCCCC2)cc1)c1cccc(OC(F)F)c1,"inconclusive [inhibitor, single point]",–
CCOC(=O)C1=C(CN2CCN(C(=O)c3ccco3)CC2)NC(=O)NC1c1ccc(F)cc1 (stereo not given),inactive,–
O=C(CSc1nc2ccccc2c2nc3ccccc3n12)NCc1ccco1,active: 25.9 µM,–
Cc1cccc(C(=O)Nc2ccc(C(=O)N/N=C/c3cccc(C)n3)cc2)c1,inactive,–
O=C(COc1coc(CN2CCN(c3ccccc3)CC2)cc1=O)Nc1ccccc1F,"inconclusive [inhibitor, single point]",–
Cc1nc2cc(-c3ccccc3)sc2c(=O)n1N,active: 16.4 µM,–

Compound,Potency,"activity change, negative = growth inhibition"
COc1cc2c(cc1OC)CN(C(=O)C1CCCN(C(=O)c3ccc(Cl)cc3)C1)CC2 (stereo not given),"inconclusive [inhibitor, single point]",–
O=C1C(F)=CC(COC(c2ccccc2)(c2ccccc2)c2ccccc2)OC1n1cc(F)c(=O)[nH]c1=O (stereo not given),active: 1.64 µM,–
Cc1oc2c(C)c3oc(=O)c(CCC(=O)O)c(C)c3cc2c1-c1ccccc1,inactive,–
O=Cc1ccccc1OCc1ccc2c(c1)OCO2,active: 5.17 µM,–
Cc1nc2scc(C)n2c(=O)c1S(=O)(=O)Nc1cccc(C(F)(F)F)c1,"inconclusive [inhibitor, partial curve]",–
COc1cccc(-n2nnc(S(=O)(=O)c3ccc(C)cc3)c2N)c1,"inconclusive [inhibitor, single point]",–
CCOc1ccc(OCCC(=O)N2CCN(S(=O)(=O)c3ccc(F)cc3)CC2)cc1,"inconclusive [inhibitor, single point]",–
O=S(=O)(c1cccc(C(F)(F)F)c1)N1CCC(c2cc(-c3cccc4ccccc34)n[nH]2)CC1,active: 20.6 µM,–
CCOc1ccc2c(c1)n([O-])c1c([n+]2=O)CCCC1,active: 13 µM,–
O=c1c2ccccc2nc(-c2ccco2)n1Cc1ccccc1,"inconclusive [inhibitor, single point]",–
CCc1ccc(-c2cc(C)no2)cc1S(=O)(=O)N1CCN(c2ccccc2F)CC1,"inconclusive [inhibitor, single point]",–
Cc1onc(-c2ccccc2)c1C(=O)Nc1ccc(S(=O)(=O)N2CCOCC2)cc1,"inconclusive [inhibitor, partial curve, poor fit]",–
O=C(CCCn1c(=S)[nH]c2ccsc2c1=O)Nc1ccc(F)cc1,–,inconclusive: -31.8% [inhibitor]
O=c1cc(O)c2sc(Nc3ccc(F)c(Cl)c3)nc2[nH]1,active: 3.26 µM,–
CCOc1ccc(OCCNC2CCCC2)cc1,inactive,–
CCC1(C2CCN(Cc3ccc(OC)cc3)CC2)NC(=O)N(CC2COc3ccccc3O2)C1=O (stereo not given),–,inactive: -15.9% [at 9.04 µM]
N=Nc1c(O)n(CC(=O)Nc2ccccc2)c2ccccc12,–,inconclusive: -30.9% [inhibitor]
COc1ccccc1Cc1nc2ccccc2nc1SCC(=O)NCc1ccccc1Cl,"inconclusive [inhibitor, single point]",–
O=C(Nc1ccc(NC(=O)c2ccccc2Cl)nc1)c1ccncc1,"inconclusive [inhibitor, single point]",–
COc1ccc(C(=O)/C=C/Nc2cc(C)on2)c(OC)c1,"inconclusive [inhibitor, partial curve]",–
CC1=C(C(=O)OC2CCCCCC2)C(c2cccc(Cl)c2)CC(=O)N1 (stereo not given),active: 18.4 µM,–
O=C(Nc1cccc(Cl)c1)c1ccc(F)c(S(=O)(=O)N2CCN(c3ccccn3)CC2)c1,active: 23.1 µM,–
